Assay results reported in the supplement of paper PMC10369915.
The list shows a part of the results. No stated cut-off is given here; in the data, active = 3.2 or more and inactive = the rest. The signal is at background level for most entries.

How the values were obtained:
Assay in all cases: enrichment score (SH2-bound / input frequency) (ratio); bacterial display of known human phosphotyrosine sites (pTyr-Var adds point mutants) read by sequencing; higher = stronger binding; tyrosines were phosphorylated by kinases first
Details in all cases: peptide library: pTyr-Var
SHP2 C-SH2 domain E139D = target: SHP2 C-SH2 domain E139D
[1] = target: SHP2 C-SH2 domain wild-type
SHP2 N-SH2 domain L43F = target: SHP2 N-SH2 domain L43F
SHP2 N-SH2 domain T42A = target: SHP2 N-SH2 domain T42A
SHP2 N-SH2 domain T52S = target: SHP2 N-SH2 domain T52S
[2] = target: SHP2 N-SH2 domain wild-type
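Further: displayed peptides selected on beads carrying the immobilized SH2 domain, with library peptides lacking any tyrosine serving as negative controls.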

Binder | enrichment score (SHP2 C-SH2 domain E139D) | enrichment score [1] | enrichment score (SHP2 N-SH2 domain L43F) | enrichment score (SHP2 N-SH2 domain T42A) | enrichment score (SHP2 N-SH2 domain T52S) | enrichment score [2]
YGMSTYITRED [FNDC3B_Y180] | inactive: 0.88 | inactive: 0.974 | inactive: 0.813 | inactive: 0.822 | inactive: 0.848 | inactive: 1.03
YGMSSYITRED [FNDC3B_Y180_T179S] | inactive: 0.941 | inactive: 0.914 | inactive: 1.01 | inactive: 0.74 | inactive: 0.826 | inactive: 0.97
FGMSSYITRED [FNDC3B_Y180_T179S_YF] | inactive: 1.02 | inactive: 0.864 | inactive: 0.813 | inactive: 0.796 | inactive: 0.748 | inactive: 0.845
LDPDSYNKFEN [FOXC1_Y159_M161K] | inactive: 0.265 | inactive: 0.5 | inactive: 0.713 | inactive: 0.333 | inactive: 0.916 | inactive: 0.567
ERFAFYRDSPR [FOXE3_Y108] | inactive: 1.24 | inactive: 0.757 | inactive: 0.786 | inactive: 0.83 | inactive: 0.799 | inactive: 0.943
LVRPPYSFLAL [FOXI1_Y126_S129L_YF] | inactive: 0.611 | inactive: 0.659 | inactive: 0.704 | inactive: 0.732 | inactive: 0.695 | inactive: 0.728
AGADGYGYLAP [FOXL2_Y186] | inactive: 0.62 | inactive: 0.713 | inactive: 0.642 | inactive: 0.585 | inactive: 0.702 | inactive: 0.669
ASYGPYTRVQS [FOXL2_Y258] | inactive: 0.871 | inactive: 2.3 | inactive: 0.79 | inactive: 1.52 | inactive: 0.803 | inactive: 0.678
ASYGPNTRVQS [FOXL2_Y258_Y258N] | inactive: 0.604 | inactive: 0.508 | inactive: 0.453 | inactive: 0.58 | inactive: 0.572 | inactive: 0.519
ASFGPNTRVQS [FOXL2_Y258_Y258N_YF] | inactive: 0.748 | inactive: 0.723 | inactive: 0.559 | inactive: 0.384 | inactive: 0.521 | inactive: 0.644
TLSGTYQYIIA [FOXL2_Y81_I80T] | inactive: 1.17 | inactive: 2.02 | inactive: 1.75 | active: 5.52 | inactive: 1.93 | inactive: 1.05
TLSGIYQYSIA [FOXL2_Y81_I84S] | inactive: 1.33 | inactive: 1.73 | active: 3.5 | inactive: 1.5 | active: 3.26 | inactive: 1.36
TLSGIYQFSIA [FOXL2_Y81_I84S_YF] | inactive: 1.41 | inactive: 1.65 | inactive: 1.53 | inactive: 1.93 | inactive: 1.66 | inactive: 1.61
TLSGIYQFIIA [FOXL2_Y81_YF] | active: 3.31 | inactive: 2.82 | inactive: 2.9 | inactive: 2.03 | inactive: 2.4 | inactive: 2.67
SGIFQYSIAKF [FOXL2_Y83_I84S_YF] | inactive: 1.95 | inactive: 1.79 | active: 3.74 | inactive: 2.52 | active: 4.87 | inactive: 1.84
RPPFTYATLIH [FOXP3_Y342_R347H] | active: 3.73 | active: 5.24 | active: 4.89 | active: 12.4 | active: 6.25 | inactive: 2.45
FIPSNYVAEDR [FRK_Y104_YF] | inactive: 0.948 | inactive: 0.71 | inactive: 0.821 | inactive: 0.58 | inactive: 0.69 | inactive: 0.805
EKQLLYLENKT [FRK_Y132_S133L] | inactive: 0.873 | inactive: 0.914 | inactive: 0.912 | inactive: 0.822 | inactive: 0.779 | inactive: 1.3
GGGGGYNRSSG [FUS_Y232] | inactive: 0.471 | inactive: 0.52 | inactive: 0.466 | inactive: 0.418 | inactive: 0.432 | inactive: 0.466

Binder | enrichment score (SHP2 C-SH2 domain E139D) | enrichment score [1] | enrichment score (SHP2 N-SH2 domain L43F) | enrichment score (SHP2 N-SH2 domain T42A) | enrichment score (SHP2 N-SH2 domain T52S) | enrichment score [2]
GGGCGYNRSSG [FUS_Y232_G230C] | inactive: 0.634 | inactive: 0.774 | inactive: 0.617 | inactive: 0.601 | inactive: 0.658 | inactive: 0.771
RRERPYGGGGG [FUS_Y526] | inactive: 0.151 | inactive: 0.171 | inactive: 0.252 | inactive: 0.421 | inactive: 0.153 | inactive: 0.265
RGERPYGGGGG [FUS_Y526_R522G] | inactive: 0.663 | inactive: 0.482 | inactive: 0.654 | inactive: 0.784 | inactive: 0.77 | inactive: 0.718
LADKPYTFEFF [FXN_Y118_D122Y_YF] | inactive: 0.646 | inactive: 0.517 | inactive: 0.604 | inactive: 0.71 | inactive: 0.91 | inactive: 0.667
PEAALYGRFTI [FYN_Y440] | inactive: 0.623 | inactive: 0.697 | inactive: 1.35 | inactive: 0.547 | inactive: 0.804 | inactive: 1.16
FARNCYVAGQY [G6PD_Y107_S106C] | inactive: 0.783 | inactive: 0.887 | inactive: 0.713 | inactive: 0.92 | inactive: 0.634 | inactive: 1.13
YRIDHYLGKEM [G6PD_Y202] | inactive: 1.43 | inactive: 1 | inactive: 1.1 | inactive: 0.854 | inactive: 1.04 | inactive: 0.862
FCIDHYLGKEM [G6PD_Y202_R198C_YF] | inactive: 1.16 | inactive: 1.22 | inactive: 1.22 | inactive: 1.23 | inactive: 1.07 | inactive: 1.44
EATKGYPDDPT [G6PD_Y322_L323P] | inactive: 0.414 | inactive: 0.471 | inactive: 0.422 | inactive: 0.439 | inactive: 0.599 | inactive: 0.545
KLPDAYERLIL [G6PD_Y437] | inactive: 1.06 | inactive: 1.05 | inactive: 0.918 | inactive: 0.93 | inactive: 0.966 | inactive: 0.863
RNDLDYMDSRR [GAA_Y407_W402R] | inactive: 0.558 | inactive: 0.642 | inactive: 0.617 | inactive: 0.838 | inactive: 0.831 | inactive: 0.481
TLLSAYQIPRT [GAB2_Y324_P320L] | inactive: 0.992 | inactive: 1.03 | inactive: 1.14 | inactive: 0.968 | inactive: 1.08 | inactive: 1.19
GRSTFYWPSPR [GAGE12J_Y10_R13S_YF] | inactive: 1.18 | inactive: 1.18 | inactive: 1.43 | inactive: 1.1 | inactive: 1.25 | inactive: 1.13
RGRSTYYWPRP [GAGE12J_Y9] | inactive: 0.167 | inactive: 0.139 | inactive: 0.224 | inactive: 0.232 | inactive: 0.208 | inactive: 0.389
RGRSTYYWPSP [GAGE12J_Y9_R13S] | inactive: 0.234 | inactive: 0.294 | inactive: 0.176 | inactive: 0.194 | inactive: 0.135 | inactive: 0.34
QKPLGYYRVNL [GALE_Y104_D103G] | inactive: 1.34 | inactive: 1.22 | inactive: 1.07 | inactive: 0.869 | inactive: 1.02 | inactive: 1.75
QKPLGYFRVNL [GALE_Y104_D103G_YF] | inactive: 1.43 | inactive: 1.51 | inactive: 1.55 | inactive: 1.7 | inactive: 1.56 | inactive: 1.39
KFMVGYEMLAQ [GALT_Y339] | inactive: 1.36 | inactive: 1.11 | inactive: 1.14 | inactive: 1.43 | inactive: 1.25 | inactive: 1.1
